Assay results: the supplement of paper PMC8728848
The list shows a part of the results.

Legend:
Assay in all cases: glycan array binding signal (z-score within array); higher = stronger binding
Conditions in all cases: glycan notation: IUPAC condensed, linker removed
[1] = biological target: Gal(b1-4)GlcNAc(b1-6)[Gal(b1-3)]GlcNAc
Method in brief: (§1)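 Negative Z-scores can be read as non-binding. The Z-score is calculated within each array and then averaged across arrays of one protein sequence at different concentrations or buffers and across linkers. Arrays, 3228 in all, were curated from the Consortium for Functional Glycomics database and kept only where the protein sequence was available.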

[2] = biological target: Gal(b1-4)GlcNAc(b1-6)[Gal(b1-4)GlcNAc(b1-3)]GalNAc
Method in brief: as §1

Gal(b1-4)GlcNAc6P = biological target: Gal(b1-4)GlcNAc6P
Method in brief: as §1

Gal(b1-6)Gal = biological target: Gal(b1-6)Gal
Method in brief: as §1

Gal3S(b1-3)GalNAc = biological target: Gal3S(b1-3)GalNAc
Method in brief: as §1

Gal3S(b1-3)GlcNAc = biological target: Gal3S(b1-3)GlcNAc
Method in brief: as §1

[3] = biological target: Gal3S(b1-3)[Fuc(a1-4)]GlcNAc
Method in brief: as §1

Gal3S(b1-4)Glc = biological target: Gal3S(b1-4)Glc
Method in brief: as §1

Gal3S(b1-4)Glc6S = biological target: Gal3S(b1-4)Glc6S
Method in brief: as §1

Gal3S(b1-4)GlcNAc = biological target: Gal3S(b1-4)GlcNAc
Method in brief: as §1

Gal3S(b1-4)GlcNAc6S = biological target: Gal3S(b1-4)GlcNAc6S
Method in brief: as §1

[4] = biological target: Gal3S(b1-4)[Fuc(a1-3)]Glc
Method in brief: as §1

[5] = biological target: Gal3S(b1-4)[Fuc(a1-3)]Glc6S
Method in brief: as §1

[6] = biological target: Gal3S(b1-4)[Fuc(a1-3)]GlcNAc
Method in brief: as §1

[7] = biological target: Gal3S(b1-4)[Fuc(a1-3)]GlcNAc6S
Method in brief: as §1

Gal3S4S(b1-4)GlcNAc = biological target: Gal3S4S(b1-4)GlcNAc
Method in brief: as §1

Gal3S6S(b1-4)GlcNAc = biological target: Gal3S6S(b1-4)GlcNAc
Method in brief: as §1

Gal3S6S(b1-4)GlcNAc6S = biological target: Gal3S6S(b1-4)GlcNAc6S
Method in brief: as §1

Gal4S(b1-4)GlcNAc = biological target: Gal4S(b1-4)GlcNAc
Method in brief: as §1

Gal4S6S(b1-4)GlcNAc = biological target: Gal4S6S(b1-4)GlcNAc
Method in brief: as §1

Gal6P(b1-4)GlcNAc = biological target: Gal6P(b1-4)GlcNAc
Method in brief: as §1

Gal6S(b1-3)GlcNAc = biological target: Gal6S(b1-3)GlcNAc
Method in brief: as §1

Gal6S(b1-3)GlcNAc6S = biological target: Gal6S(b1-3)GlcNAc6S
Method in brief: as §1

Gal6S(b1-4)Glc = biological target: Gal6S(b1-4)Glc
Method in brief: as §1

Gal6S(b1-4)Glc6S = biological target: Gal6S(b1-4)Glc6S
Method in brief: as §1

Gal6S(b1-4)GlcNAc = biological target: Gal6S(b1-4)GlcNAc
Method in brief: as §1

Gal6S(b1-4)GlcNAc6S = biological target: Gal6S(b1-4)GlcNAc6S
Method in brief: as §1

GalNAc(a1-3)Gal = biological target: GalNAc(a1-3)Gal
Method in brief: as §1

GalNAc(a1-3)GalNAc = biological target: GalNAc(a1-3)GalNAc
Method in brief: as §1

[8] = biological target: GalNAc(a1-3)GalNAc(b1-3)Gal(a1-4)Gal(b1-4)Glc
Method in brief: as §1

[9] = biological target: GalNAc(a1-3)GalNAc(b1-3)Gal(a1-4)Gal(b1-4)GlcNAc
Method in brief: as §1

GalNAc(b1-3)Gal = biological target: GalNAc(b1-3)Gal
Method in brief: as §1

[10] = biological target: GalNAc(b1-3)Gal(a1-4)Gal(b1-4)GlcNAc
Method in brief: as §1

[11] = biological target: GalNAc(b1-3)Gal(a1-4)Gal(b1-4)GlcNAc(b1-3)Gal(b1-4)Glc
Method in brief: as §1

[12] = biological target: GalNAc(b1-3)Gal(a1-6)Gal(b1-4)Glc
Method in brief: as §1

GalNAc(b1-3)GalNAc = biological target: GalNAc(b1-3)GalNAc
Method in brief: as §1

GalNAc(b1-3)GlcNAc = biological target: GalNAc(b1-3)GlcNAc
Method in brief: as §1

GalNAc(b1-4)Gal(b1-4)Glc = biological target: GalNAc(b1-4)Gal(b1-4)Glc
Method in brief: as §1

GalNAc(b1-4)GlcNAc = biological target: GalNAc(b1-4)GlcNAc
Method in brief: as §1

[13] = biological target: GalNAc(b1-4)GlcNAc(b1-2)Man
Method in brief: as §1

[14] = biological target: GalNAc(b1-4)GlcNAc(b1-2)Man(a1-3)[GalNAc(b1-4)GlcNAc(b1-2)Man(a1-6)]Man(b1-4)GlcNAc(b1-4)GlcNAc
Method in brief: as §1

[15] = biological target: GalNAc(b1-4)GlcNAc(b1-3)GalNAc(b1-4)GlcNAc
Method in brief: as §1

GalNAc(b1-4)GlcNAc6S = biological target: GalNAc(b1-4)GlcNAc6S
Method in brief: as §1

GalNAc(b1-6)GalNAc = biological target: GalNAc(b1-6)GalNAc
Method in brief: as §1

GalNAc3S(b1-4)GlcNAc = biological target: GalNAc3S(b1-4)GlcNAc
Method in brief: as §1

B1: Gal 7 (Homo sapiens) (protein)
chain: MSNVPHKSSLPEGIRPGTVLRIRGLVPPNASRFHVNLLCGEEGGSDAALHFNPRLDTSEVVFNSKEGGSWGREERGPGVPFGRGQPFEVLIIASDDGFKAVVGDAQYHHFRHRLPLARVRLVEVGGDVQLDSVRIF
[1]
  glycan array binding signal (z-score): 0.225
[2]
  glycan array binding signal (z-score): -0.3
Gal(b1-4)GlcNAc6P
  glycan array binding signal (z-score): -0.226
Gal(b1-6)Gal
  glycan array binding signal (z-score): -0.233
Gal3S(b1-3)GalNAc
  glycan array binding signal (z-score): 0.538
Gal3S(b1-3)GlcNAc
  glycan array binding signal (z-score): 0.499
[3]
  glycan array binding signal (z-score): -0.087
Gal3S(b1-4)Glc
  glycan array binding signal (z-score): 0.699
Gal3S(b1-4)Glc6S
  glycan array binding signal (z-score): 2.04
Gal3S(b1-4)GlcNAc
  glycan array binding signal (z-score): 0.651
Gal3S(b1-4)GlcNAc6S
  glycan array binding signal (z-score): 0.579
[4]
  glycan array binding signal (z-score): 0.042
[5]
  glycan array binding signal (z-score): 0.268
[6]
  glycan array binding signal (z-score): -0.312
[7]
  glycan array binding signal (z-score): -0.296
Gal3S4S(b1-4)GlcNAc
  glycan array binding signal (z-score): -0.203
Gal3S6S(b1-4)GlcNAc
  glycan array binding signal (z-score): -0.175
Gal3S6S(b1-4)GlcNAc6S
  glycan array binding signal (z-score): -0.262
Gal4S(b1-4)GlcNAc
  glycan array binding signal (z-score): -0.354
Gal4S6S(b1-4)GlcNAc
  glycan array binding signal (z-score): -0.251
Gal6P(b1-4)GlcNAc
  glycan array binding signal (z-score): -0.165
Gal6S(b1-3)GlcNAc
  glycan array binding signal (z-score): -0.324
Gal6S(b1-3)GlcNAc6S
  glycan array binding signal (z-score): 0.075
Gal6S(b1-4)Glc
  glycan array binding signal (z-score): -0.263
Gal6S(b1-4)Glc6S
  glycan array binding signal (z-score): -0.208
Gal6S(b1-4)GlcNAc
  glycan array binding signal (z-score): -0.246
Gal6S(b1-4)GlcNAc6S
  glycan array binding signal (z-score): 0.11
GalNAc(a1-3)Gal
  glycan array binding signal (z-score): -0.299
GalNAc(a1-3)GalNAc
  glycan array binding signal (z-score): -0.302
[8]
  glycan array binding signal (z-score): -0.298
[9]
  glycan array binding signal (z-score): -0.308
GalNAc(b1-3)Gal
  glycan array binding signal (z-score): -0.334
[10]
  glycan array binding signal (z-score): -0.303
[11]
  glycan array binding signal (z-score): 1.77
[12]
  glycan array binding signal (z-score): -0.319
GalNAc(b1-3)GalNAc
  glycan array binding signal (z-score): -0.241
GalNAc(b1-3)GlcNAc
  glycan array binding signal (z-score): -0.26
GalNAc(b1-4)Gal(b1-4)Glc
  glycan array binding signal (z-score): -0.135
GalNAc(b1-4)GlcNAc
  glycan array binding signal (z-score): -0.291
[13]
  glycan array binding signal (z-score): -0.297
[14]
  glycan array binding signal (z-score): -0.082
[15]
  glycan array binding signal (z-score): -0.158
GalNAc(b1-4)GlcNAc6S
  glycan array binding signal (z-score): -0.217
GalNAc(b1-6)GalNAc
  glycan array binding signal (z-score): -0.332
GalNAc3S(b1-4)GlcNAc
  glycan array binding signal (z-score): -0.326
